B1: Caulobacter ParB omega fusion; a variant is named by its letters at X, in order, B8GW30 (parent)
chain: MESVVVGEPGMSEGRRGLGRGLSALLGEVDAAPAQAPGEQLGGSREAPIEILQRNPDQPRRTFREEDLEDLSNSIREKGVLQPILVRPSPDTAGEYQIVAGERAWRAAQRAGLKTVPIMVRELDDLAVLEIGIIENVQRADLNVLEEALSYKVLMEKFERTQENIAQTIGKSXSHVANXMRLLXLPDEVQSYLVSGELTAXHARAIAAAADPVALAKQIIEGGLSVRETEALARKAPNLSAGKSKGGRPPRVKDTDTQALESDLSSVLGLDVSIDHRGSTGTLTITYATLEQLDDLCNRLTRGI

Experimental findings from a collection of fitness landscapes (doi:10.1016/j.celrep.2020.107928) are described below.

The full ranking holds about 81,000 sequences; the median of “one-hybrid fitness for binding parS DNA” is about -0.17, and the highest 2% start at about 0.51. The list shows a part of the results.

In this assay the parent is B1. Nature of the assay: one-hybrid fitness for binding parS DNA (scaled: cognate 1, non-cognate 0); higher = stronger binding. Particulars: with parS DNA site. The procedure, abridged:
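On M9-minus-histidine containing 0.1 mM IPTG and 5 mM 3-AT, E. coli USO cells with a HIS3 reporter, site 19 bp from the promoter, grew 48 hours at 37°C to select Caulobacter ParB libraries randomised at four specificity codons. Plasmids from before and after were Illumina-sequenced, with three replicate libraries pooled and variants under 10 reads left out. Fitness is the log change in variant-to-wild-type read ratio, rescaled against cognate and non-cognate.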
In the case of RTTM, the “one-hybrid fitness for binding parS DNA” value was 0.316.

EPEC: the “one-hybrid fitness for binding parS DNA” value was not above 0.2.

For the variant SFEC, the “one-hybrid fitness for binding parS DNA” value is not above 0.2.

Take HVCP: the “one-hybrid fitness for binding parS DNA” value was not above 0.2.

In the case of KWYG, the “one-hybrid fitness for binding parS DNA” value is not above 0.2.

As for TKNF, the “one-hybrid fitness for binding parS DNA” value is not above 0.2.

Take GSWR: the “one-hybrid fitness for binding parS DNA” value was not above 0.2.

For the variant MYLC, the “one-hybrid fitness for binding parS DNA” value was not above 0.2.

With MTRP, the “one-hybrid fitness for binding parS DNA” value was not above 0.2.

With KYTQ, the “one-hybrid fitness for binding parS DNA” value was not above 0.2.

As for KGPD, the “one-hybrid fitness for binding parS DNA” value is not above 0.2.

As to SSVR, the “one-hybrid fitness for binding parS DNA” value was not above 0.2.

IAHL: the “one-hybrid fitness for binding parS DNA” value is not above 0.2.

With VANW, the “one-hybrid fitness for binding parS DNA” value was not above 0.2.

For the variant VLVG, the “one-hybrid fitness for binding parS DNA” value was not above 0.2.

For the variant RVEC, the “one-hybrid fitness for binding parS DNA” value was determined as 0.805.

For the variant RWNT, the “one-hybrid fitness for binding parS DNA” value worked out at 0.682.

In the case of RWIY, the “one-hybrid fitness for binding parS DNA” value was not above 0.2.

For the variant FPGE, the “one-hybrid fitness for binding parS DNA” value was not above 0.2.

AGNA: the “one-hybrid fitness for binding parS DNA” value is not above 0.2.

Take CFSF: the “one-hybrid fitness for binding parS DNA” value is not above 0.2.

Consider WDRA, for which the “one-hybrid fitness for binding parS DNA” value is not above 0.2.

Consider WFKR, for which the “one-hybrid fitness for binding parS DNA” value is not above 0.2.

In the case of RSNR, the “one-hybrid fitness for binding parS DNA” value is not above 0.2.

Consider APTW, for which the “one-hybrid fitness for binding parS DNA” value is not above 0.2.

In the case of VSYG, the “one-hybrid fitness for binding parS DNA” value is not above 0.2.

As for CNTS, the “one-hybrid fitness for binding parS DNA” value was not above 0.2.

For the variant WKAG, the “one-hybrid fitness for binding parS DNA” value was not above 0.2.

With LLIG, the “one-hybrid fitness for binding parS DNA” value was not above 0.2.

With SSRG, the “one-hybrid fitness for binding parS DNA” value is not above 0.2.

Regarding MEAE, the “one-hybrid fitness for binding parS DNA” value was not above 0.2.

Take PGNS: the “one-hybrid fitness for binding parS DNA” value was not above 0.2.

With QRRS, the “one-hybrid fitness for binding parS DNA” value was not above 0.2.

As for RPGE, the “one-hybrid fitness for binding parS DNA” value is not above 0.2.

As for YRHE, the “one-hybrid fitness for binding parS DNA” value is not above 0.2.

Take TKYR: the “one-hybrid fitness for binding parS DNA” value is not above 0.2.

GFGS: the “one-hybrid fitness for binding parS DNA” value was not above 0.2.

Consider SWGI, for which the “one-hybrid fitness for binding parS DNA” value is not above 0.2.

With KTCN, the “one-hybrid fitness for binding parS DNA” value was not above 0.2.

YEST: the “one-hybrid fitness for binding parS DNA” value was not above 0.2.

Turning to DRPR, the “one-hybrid fitness for binding parS DNA” value is not above 0.2.

Consider REID, for which the “one-hybrid fitness for binding parS DNA” value was not above 0.2.

Regarding IVRY, the “one-hybrid fitness for binding parS DNA” value is not above 0.2.

In the case of WHRT, the “one-hybrid fitness for binding parS DNA” value was not above 0.2.

As to VNIY, the “one-hybrid fitness for binding parS DNA” value was not above 0.2.

AWWG: the “one-hybrid fitness for binding parS DNA” value was not above 0.2.

For the variant VVDS, the “one-hybrid fitness for binding parS DNA” value is not above 0.2.

For EVLT, the “one-hybrid fitness for binding parS DNA” value is not above 0.2.

Turning to FLAC, the “one-hybrid fitness for binding parS DNA” value is not above 0.2.

Take QDPM: the “one-hybrid fitness for binding parS DNA” value is not above 0.2.

Turning to LHPH, the “one-hybrid fitness for binding parS DNA” value is not above 0.2.

On to FASY, for which the “one-hybrid fitness for binding parS DNA” value was not above 0.2.

With NMYT, the “one-hybrid fitness for binding parS DNA” value was not above 0.2.

WKTT: the “one-hybrid fitness for binding parS DNA” value is not above 0.2.

In the case of QMRC, the “one-hybrid fitness for binding parS DNA” value is not above 0.2.

In the case of RKFQ, the “one-hybrid fitness for binding parS DNA” value is not above 0.2.

On to WAYH, for which the “one-hybrid fitness for binding parS DNA” value was not above 0.2.

For the variant KTMP, the “one-hybrid fitness for binding parS DNA” value is not above 0.2.

As to NMPI, the “one-hybrid fitness for binding parS DNA” value was not above 0.2.

Turning to VTDM, the “one-hybrid fitness for binding parS DNA” value was not above 0.2.

Take TQHN: the “one-hybrid fitness for binding parS DNA” value was not above 0.2.

For the variant SPLR, the “one-hybrid fitness for binding parS DNA” value was not above 0.2.

Turning to CGAS, the “one-hybrid fitness for binding parS DNA” value was not above 0.2.

Consider FVPY, for which the “one-hybrid fitness for binding parS DNA” value was not above 0.2.

YGNL: the “one-hybrid fitness for binding parS DNA” value was not above 0.2.

With YSLI, the “one-hybrid fitness for binding parS DNA” value is not above 0.2.

On to CPHM, for which the “one-hybrid fitness for binding parS DNA” value was not above 0.2.

For the variant SMTI, the “one-hybrid fitness for binding parS DNA” value is not above 0.2.

Regarding TLDR, the “one-hybrid fitness for binding parS DNA” value is not above 0.2.

For NDGY, the “one-hybrid fitness for binding parS DNA” value is not above 0.2.

For the variant RFNT, the “one-hybrid fitness for binding parS DNA” value came to 0.862.

As for KRGV, the “one-hybrid fitness for binding parS DNA” value was not above 0.2.

Consider RDSK, for which the “one-hybrid fitness for binding parS DNA” value is not above 0.2.

Take HGIG: the “one-hybrid fitness for binding parS DNA” value was not above 0.2.

CVWS: the “one-hybrid fitness for binding parS DNA” value is not above 0.2.

Turning to QHRH, the “one-hybrid fitness for binding parS DNA” value is not above 0.2.

As for AKEW, the “one-hybrid fitness for binding parS DNA” value was not above 0.2.

Consider RCVV, for which the “one-hybrid fitness for binding parS DNA” value is not above 0.2.

Take QKFL: the “one-hybrid fitness for binding parS DNA” value was not above 0.2.

Turning to SAHY, the “one-hybrid fitness for binding parS DNA” value was not above 0.2.

Turning to PLCY, the “one-hybrid fitness for binding parS DNA” value is not above 0.2.

For the variant TNSR, the “one-hybrid fitness for binding parS DNA” value was not above 0.2.

For WWPT, the “one-hybrid fitness for binding parS DNA” value is not above 0.2.

With SDDL, the “one-hybrid fitness for binding parS DNA” value is not above 0.2.

For NNAP, the “one-hybrid fitness for binding parS DNA” value is not above 0.2.

As to NRKR, the “one-hybrid fitness for binding parS DNA” value was not above 0.2.

As for DNTR, the “one-hybrid fitness for binding parS DNA” value was not above 0.2.

As to SYKN, the “one-hybrid fitness for binding parS DNA” value was not above 0.2.

Take AARS: the “one-hybrid fitness for binding parS DNA” value is not above 0.2.

Turning to VTAR, the “one-hybrid fitness for binding parS DNA” value is not above 0.2.

For the variant SPNG, the “one-hybrid fitness for binding parS DNA” value is not above 0.2.

Turning to AHHY, the “one-hybrid fitness for binding parS DNA” value is not above 0.2.

In the case of PVPS, the “one-hybrid fitness for binding parS DNA” value is not above 0.2.

Regarding HLWS, the “one-hybrid fitness for binding parS DNA” value was not above 0.2.

With LQRS, the “one-hybrid fitness for binding parS DNA” value is not above 0.2.

Regarding WPLK, the “one-hybrid fitness for binding parS DNA” value was not above 0.2.

SYLD: the “one-hybrid fitness for binding parS DNA” value was not above 0.2.

With MCPR, the “one-hybrid fitness for binding parS DNA” value is not above 0.2.

Consider PPMP, for which the “one-hybrid fitness for binding parS DNA” value is not above 0.2.

Turning to SLAQ, the “one-hybrid fitness for binding parS DNA” value is not above 0.2.

On to QDMV, for which the “one-hybrid fitness for binding parS DNA” value is not above 0.2.

With QHEE, the “one-hybrid fitness for binding parS DNA” value is not above 0.2.

For PPPL, the “one-hybrid fitness for binding parS DNA” value was not above 0.2.

On to YRRC, for which the “one-hybrid fitness for binding parS DNA” value came to 0.431.

Consider SHDD, for which the “one-hybrid fitness for binding parS DNA” value is not above 0.2.

As to SSSQ, the “one-hybrid fitness for binding parS DNA” value was not above 0.2.

With RLLK, the “one-hybrid fitness for binding parS DNA” value is not above 0.2.

As to KTHY, the “one-hybrid fitness for binding parS DNA” value is not above 0.2.

Turning to CTSC, the “one-hybrid fitness for binding parS DNA” value was not above 0.2.

In the case of KWKC, the “one-hybrid fitness for binding parS DNA” value was determined as 0.238.

Regarding SLDV, the “one-hybrid fitness for binding parS DNA” value was not above 0.2.

As for HWDT, the “one-hybrid fitness for binding parS DNA” value is not above 0.2.

With MKHR, the “one-hybrid fitness for binding parS DNA” value was not above 0.2.

With IRAD, the “one-hybrid fitness for binding parS DNA” value is not above 0.2.

As to PHLD, the “one-hybrid fitness for binding parS DNA” value was not above 0.2.

Take HPAC: the “one-hybrid fitness for binding parS DNA” value is not above 0.2.

On to SAQY, for which the “one-hybrid fitness for binding parS DNA” value was not above 0.2.

Consider ELRS, for which the “one-hybrid fitness for binding parS DNA” value is not above 0.2.

For the variant HLHS, the “one-hybrid fitness for binding parS DNA” value is not above 0.2.

Take VCTM: the “one-hybrid fitness for binding parS DNA” value is not above 0.2.

With ANIC, the “one-hybrid fitness for binding parS DNA” value was not above 0.2.

With DEGT, the “one-hybrid fitness for binding parS DNA” value was not above 0.2.

Regarding HARW, the “one-hybrid fitness for binding parS DNA” value was not above 0.2.

For HRNN, the “one-hybrid fitness for binding parS DNA” value is not above 0.2.

GSSV: the “one-hybrid fitness for binding parS DNA” value was not above 0.2.

TDND: the “one-hybrid fitness for binding parS DNA” value is not above 0.2.

Consider GGKS, for which the “one-hybrid fitness for binding parS DNA” value is not above 0.2.

For the variant LVPI, the “one-hybrid fitness for binding parS DNA” value was not above 0.2.

Turning to IANM, the “one-hybrid fitness for binding parS DNA” value is not above 0.2.

With RFWD, the “one-hybrid fitness for binding parS DNA” value is not above 0.2.

As to HLNE, the “one-hybrid fitness for binding parS DNA” value was not above 0.2.

For the variant EKVW, the “one-hybrid fitness for binding parS DNA” value was not above 0.2.

Consider TANP, for which the “one-hybrid fitness for binding parS DNA” value is not above 0.2.

As to SGWL, the “one-hybrid fitness for binding parS DNA” value was not above 0.2.

ADDL: the “one-hybrid fitness for binding parS DNA” value is not above 0.2.

Regarding KYMP, the “one-hybrid fitness for binding parS DNA” value is not above 0.2.

For CTRV, the “one-hybrid fitness for binding parS DNA” value is not above 0.2.

Take REGP: the “one-hybrid fitness for binding parS DNA” value was not above 0.2.

In the case of GAAA, the “one-hybrid fitness for binding parS DNA” value was not above 0.2.

In the case of GRSH, the “one-hybrid fitness for binding parS DNA” value is not above 0.2.

As to GEHL, the “one-hybrid fitness for binding parS DNA” value was not above 0.2.

RTFI: the “one-hybrid fitness for binding parS DNA” value is not above 0.2.

As for LDNF, the “one-hybrid fitness for binding parS DNA” value is not above 0.2.

As to YRDF, the “one-hybrid fitness for binding parS DNA” value is not above 0.2.

Consider ALTL, for which the “one-hybrid fitness for binding parS DNA” value was not above 0.2.

For the variant IHTT, the “one-hybrid fitness for binding parS DNA” value was not above 0.2.

Consider FYHT, for which the “one-hybrid fitness for binding parS DNA” value is not above 0.2.

Regarding DRNC, the “one-hybrid fitness for binding parS DNA” value is not above 0.2.

For the variant RDAW, the “one-hybrid fitness for binding parS DNA” value was not above 0.2.

For the variant TADL, the “one-hybrid fitness for binding parS DNA” value is not above 0.2.

Consider EVET, for which the “one-hybrid fitness for binding parS DNA” value was not above 0.2.

As to NSMS, the “one-hybrid fitness for binding parS DNA” value is not above 0.2.

In the case of LTNY, the “one-hybrid fitness for binding parS DNA” value is not above 0.2.
